Assay results: PubChem BioAssay AID938 (National Center for Advancing Translational Sciences (NCATS), 2007)
Where “and” joins values, the source holds several entries; their conditions need not be identical. Equal entries are not always repeated. The campaign covered roughly 73,000 compounds. About 1,800 (2.5%) were called active. Inconclusive results, whose numbers are uncertain, are shown with a selection of clear calls. Calls come from the whole dose curve; as a rule, active = well fitted activation curve with a large enough effect; inconclusive = small, poorly fitted or top-dose-only effect; inactive = no such curve, though single readings can be large or run the other way. Potencies of inconclusive entries are doubtful fits and often do not repeat.

Assay: qHTS Assay for Agonists of the Thyroid Stimulating Hormone Receptor: Activators of Intracellular cAMP Concentrations in Parental HEK 293; note: nearly all actives have a fitted effect of over 55% in size; for activation: % of control where 0% means no effect
Settings: parental HEK293 CNG cAMP sensor, membrane potential fluorescence; activation: at 57.1 µM (top of the series) unless noted
Source text: NIH Chemical Genomics Center [NCGC]
NIH Molecular Libraries Screening Centers Network [MLSCN]
PI Name: Dr. Marvin Gershengorn
This cell based assay utilized a cyclic nucleotide gated ion channel (CNG) as a biosensor for cAMP induction. HEK 293 cells stably expressing the modified CNG were purchased from BD biosciences (http://www.atto.com/products/actone/features_benefits.shtml) . Stimulation of cAMP production causes the CNG to open and subsequent membrane depolarization to occur. A fluorescent membrane potential dye (BD biosciences) was utilized to detect cAMP stimulation in cells.
The cells were maintained in DMEM medium (Invitrogen) containing 10 % FBS (Hyclone), 100 units/ml Penicillin, 100 ug/ml Streptomycin (Invitrogen), and 250 ug/ml Geneticin (Invitrogen) and 1 ug/ml Puromycin (Invitrogen) at 37C in 5% CO2. This assay was used as a counterscreen to "qHTS Assay for Agonists of the Thyroid Stimulating Hormone Receptor", to control for compounds signaling through endogenous receptors and other targets of HEK 293 cells.
NCGC Assay Protocol Summary:
High Throughput Screening. Freshly passaged cells were dispensed into 1536-well assay plates at 4 ul/well in DMEM containing phenol red (Invitrogen), 10% FCS (Hyclone), and 100 units/ml Penicillin, 100 ug/ml Streptomycin (Invitrogen) and incubated at 37 C with 5% CO2 for 20 to 36 hrs before the robotic screening. The screen was initiated by addition of 4 ul/well membrane potential dye containing 100 uM RO 20-1724 (Sigma Aldrich), followed by 60 min incubation at room temperature to allow for dye equilibration across the cell membrane. 23 nl/well compound or control was then added to the assay plates, which were incubated for additional 30 min before reading a Envision fluorescence plate reader (Perkin Elmer) in bottom-read mode for fluorescence intensity (emission at 590 nm).
Keywords: cAMP, CNG Ion Channel, quantitative high throughput screening, qHTS, HTS, probe identification, CNG, cAMP, cyclic nucleotide gated ion channel PubChem
Potency is the fitted concentration of half-maximal effect; tags give direction and shape of the fitted curve.

| SMILES | Potency | activation |
| --- | --- | --- |
| CCCn1c(SCC(=O)N2c3ccccc3Sc3ccccc32)nc2c1c(=O)n(C)c(=O)n2C | inconclusive: 31.6 µM [activator, single point] | – |
| COc1ccc(C2=CC(c3ccc(Cl)cc3)n3cnnc3N2)cc1OC (stereo not drawn) | inconclusive: 15.8 µM [activator, partial curve] | – |
| O=C(Nc1ccccc1N1CCN(c2ccc(F)cc2)CC1)C1CCCCC1 | active: 3.16 µM | – |
| O=C(c1ccco1)N1CCN(C(c2ccccc2Cl)c2nnnn2Cc2cccs2)CC1 (stereo not drawn) | inconclusive: 31.6 µM [activator, single point] | – |
| O=[N+]([O-])c1ccc(NCCO)c(OCCO)c1 | inconclusive: 39.8 µM [activator, single point] | – |
| CC1(C)OC(C(O)(c2cccc3c2oc2ccccc23)c2cccc3c2oc2ccccc23)C(C(O)(c2cccc3c2oc2ccccc23)c2cccc3c2oc2ccccc23)O1 (stereo not drawn) | – | inactive: -1.78% [at 11.4 µM] |
| COc1ccc(S(=O)(=O)N(CC(=O)Nc2cc(C)on2)Cc2ccccc2)cc1 | inconclusive: 31.6 µM [activator, single point] | – |
| c1ccc(-c2oc3ncnc(NCCCn4ccnc4)c3c2-c2ccccc2)cc1 | inconclusive: 6.31 µM [activator, partial curve] | – |
| O=c1c(-c2cccc(F)c2)nc2cncnc2n1Cc1ccc(F)cc1 | – | inactive: 4.8% [at 2.29 µM] |
| CCOC(=O)N1CCN(c2nc(-c3ccco3)cc(C(F)(F)F)n2)CC1 | inconclusive: 25.1 µM [activator, partial curve] | – |
| S=c1[nH]nc(COc2ccc(Cl)cc2)o1 | inactive | – |
| FC(F)(F)c1cc(CN2CC3(CCNCC3)C2)cc(C(F)(F)F)c1 | inconclusive: 3.98 µM [activator, single point] | – |
| CCOCCCNC(=O)c1ccc2c(c1)OCO2 | inactive | – |
| CCCOc1ccc(C(=O)N2CCCc3ccccc32)cc1 | inconclusive: 25.1 µM [activator, single point] | – |
| COC(=O)c1c(-c2cccs2)csc1NC(=O)CN1CCOCC1 | inconclusive: 39.8 µM [activator, single point] | – |
| CCN1CCN(c2ccc(NC(=O)c3cccnc3)cc2Cl)CC1 | inactive | – |
| COc1ccccc1CCn1c(=O)cnc2cncnc21 | inconclusive: 1.26 µM [activator, full curve] | – |
| O=C1C2CC=C(Cl)CC2C(=O)N1CCc1ccccc1 (stereo not drawn) | inactive | – |
| COc1ccccc1C(c1nnnn1C(C)(C)C)N1CCN(C(=O)c2ccco2)CC1 (stereo not drawn) | inconclusive: 39.8 µM [activator, single point] | – |
| S=C(c1ccc(-c2ccc(Cl)c(Cl)c2)o1)N1CCOCC1 | inactive | – |
| CCOc1ccc2ccccc2c1CNCCN1CCOCC1 | inconclusive: 20 µM [activator, partial curve] | – |
| Cc1onc(-c2ccccc2Cl)c1C(=O)Nc1ccc(OCC(=O)N2CCOCC2)cc1 | active: 3.98 µM | – |

| SMILES | Potency | activation |
| --- | --- | --- |
| Cc1ccc(CCNC(=O)CN2CCN(Cc3ccccc3F)C2=O)cc1 | inconclusive: 20 µM [activator, partial curve] | – |
| NC[C@H]1O[C@@H](n2cnc3c(=O)[nH]c(N)nc32)[C@@H](O)[C@@H]1O | – | inactive: -0.494% [at 11.4 µM] |
| Cc1c(C(=O)NCc2ccc3c(c2)OCO3)oc2ccccc12 | active: 25.1 µM | – |
| CCSc1nnc(NC(=O)c2ccc3c(c2)OCO3)s1 | inconclusive: 25.1 µM [activator, single point] | – |
| Cc1ccccc1NC(=O)c1cnn(-c2ccccc2)c1NC(=O)c1ccco1 | inactive | – |
| COc1cc2c(cc1NC(=O)CC1SC(N3CCCC3)=NC1=O)oc1ccccc12 (stereo not drawn) | inactive | – |
| C[C@]1(C(=O)NCCc2c[nH]c3ccccc23)C=C[C@@H](Cc2ccccc2)N1C(=O)c1ccccc1 | inconclusive: 25.1 µM [activator, single point] | – |
| CCOc1ccccc1-n1c(SCC(=O)NC(C)(C)C)nnc1-c1ccoc1C | inconclusive: 3.98 µM [activator, partial curve] | – |
| c1ccc(CSc2ncn(-c3ccccc3)n2)cc1 | inconclusive: 25.1 µM [activator, single point] | – |
| CC1=CC(=C(C#N)c2nc3ccccc3s2)C=C(C)N1Cc1ccco1 | inconclusive: 0.005 µM [activator, full curve, poor fit] | – |
| C=CCSc1nnc2nc3c(nn12)c1cc(C)ccc1n3CC=C | inactive | – |
| CCCCOc1cccc(C(=O)N(Cc2ccco2)C2CCS(=O)(=O)C2)c1 (stereo not drawn) | inconclusive: 25.1 µM [activator, partial curve] | – |
| Cc1noc(C)c1CSc1nc2ccccc2n1CCc1ccccc1 | inconclusive: 15.8 µM [activator, partial curve] | – |
| O=C1Nc2ccc(S(=O)(=O)NCCC3=CCCCC3)c3cccc1c23 | inconclusive: 31.6 µM [activator, single point] | – |
| C[C@H]1[C@H](O)[C@@H](C)C=CC=CC=CC=CC=CC=CC=C[C@H](O[C@@H]2O[C@@H](C)[C@H](O)[C@@H](N)[C@@H]2O)C[C@@H]2O[C@](O)(C[C@@H](O)C[C@@H](O)[C@@H](O)CC[C@@H](O)C[C@@H](O)CC(=O)O[C@H]1C)C[C@H](O)[C@H]2C(=O)O | – | inactive: 12.1% [at 11.4 µM] |
| COc1ccc(C(=O)CSc2nn3c(=O)c(C(C)(C)C)nnc3s2)cc1 | inactive | – |
| OCc1cc([C@@H](O)CNCCCCCCOCCCCc2ccccc2)ccc1O | inconclusive: 100 nM [activator, full curve] and inconclusive: 39.8 µM [activator, partial curve] | – |
| Cc1ccc(-c2nnn(CC(=O)N(Cc3cccs3)C(C(=O)NC(C)(C)C)c3ccc(C)o3)n2)o1 (stereo not drawn) | active: 25.1 µM | – |
| CCCOc1ccccc1Cn1c(=O)oc2ccc(C)cc21 | active: 12.6 µM | – |
| CN1CCC2(CC1)CCN(C(=O)c1cc(C(F)(F)F)cc(C(F)(F)F)c1)CC2 | inactive | – |
| Cc1onc(-c2ccccc2Cl)c1C(=O)NCc1nc(-c2ccccc2)no1 | inconclusive: 31.6 µM [activator, single point] | – |
